Measurements from PubChem BioAssay AID1956 (SRMLSC, 2009).
This is one part of the list. Shown are side measurements of this screen, not its main read-out; they come without a call.

assay: compounds boosting herpes simplex virus growth – fold increase, host cell viability (AID 1956); conditions: HSV replication augmentation in cells; fold increase: measured here: primary screen fold increase 10 uM, at 10 µM, stronger effect = higher value; viability: measured here: host cell viability series, at 25 µM, stronger effect = lower value; note: tested in PC3 cells

Compound | fold increase | viability [%]
Cc1ccc(NS(=O)(=O)c2cc(C(=O)NCCSC3CCCCC3)ccc2C)cc1 | 1.33 | 84.6
N#Cc1c2nc3ccccc3nc2n2cc(NC(=O)c3ccc(F)cc3)ccc12 | 2.64 | 51.6
N#C/C(=C\c1cc([N+](=O)[O-])c(N2CCOCC2)cc1N1CCOCC1)c1nc2ccccc2[nH]1 | 1.18 | –
CN1C(=O)/C(=C/C=C2\SCCN2C)SC1=S | 1.69 | 103
C=CCN1C(=O)c2cccc3c(Br)ccc(c23)C1=O | 1.38 | 91.2
COC(=O)C1=C(C)NC(=O)/C1=C\c1cc(C)n(-c2ccccc2C)c1C | 1.36 | 92.3
COc1cc(/C=C2\SC(=S)N(Nc3ccccc3)C2=O)ccc1O | 6.3 | 97.9
Cc1noc(/C=C/c2ccc(-c3ccccc3Cl)o2)c1[N+](=O)[O-] | 7.53 | 100
CN(C)c1ccc(/C=C/c2ccc3ccccc3n2)cc1 | 2.02 | –
CC(C)Cc1oc(C(=O)O)cc1CN | 1.39 | 98.9
Cc1ccccc1C(=O)Oc1cc(N)n(S(C)(=O)=O)n1 | 1.43 | 99.5
CCCN1C(=O)/C(=C/c2ccc(N3CCOCC3)cc2)NC1=S | 1.91 | 93.3
N#Cc1c(N)n(-c2ccc(C(=O)O)cc2)c2nc3ccccc3nc12 | 1.36 | 95.3
Cn1cccc1Cc1nnc(SCC(=O)NC2CCCC2)n1CCc1ccccc1 | 1.39 | 100
CCC(C)[C@H](NC(=O)NCC1CCCO1)C(=O)OC (stereo not given in full) | 1.46 | 96.1
Cc1ccc(NC(=O)CN(Cc2ccccc2)S(C)(=O)=O)cc1C | 1.33 | 98.7
CCOC(=O)CC(=O)CSc1nc(-c2ccccc2)cc(-c2ccc(Cl)cc2)c1C#N | 1.35 | 98
O=C(CC1NCCNC1=O)NC1Cc2ccccc2C1 (stereo not given) | 1.36 | 95.1
NNc1nc2c(-c3ccc(Cl)cc3)nnn2c2ccccc12 | 1.68 | 88.5
COc1ccc(C2=CC(c3ccco3)n3ncnc3N2)cc1 (stereo not given) | 1.57 | 94.7
COc1cc(/C=C(\C#N)C(=O)N2CCc3ccccc32)ccc1O | 1.35 | 96.3
Cc1c(C(=O)Oc2ccc(-c3cnc4ccccc4n3)cc2)cccc1[N+](=O)[O-] | 1.38 | 91.5
Cc1ccc(/C=[N+](\[O-])c2ccc(N(C)C)cc2)c2nsnc12 | 1.44 | 90.7
O=C(O)/C=C/C(=O)Nc1ccc(-n2ccc(C(F)(F)F)n2)cc1 | 1.35 | 98
C/C(=N/Nc1nc(-c2ccc(Cl)cc2)cs1)c1cccs1 | 1.36 | –
CC(C)c1nc2sc3c(=O)[nH]c(=S)[nH]c3c2c2c1CCC2 | 1.42 | 95
O=C(c1cc2c(ccc3ccccc32)oc1=O)N1CCN(CCO)CC1 | 1.32 | 101
COc1ccc(C(=O)c2sc3nc(C)cc(-c4cccs4)c3c2N)cc1OC | 1.95 | 88.9

Compound | fold increase | viability [%]
Nc1ccc2c3c(cccc13)C(=O)N(c1ccccc1)C2=O | 8.39 | 97.6
Cc1ccc(Nc2nc(Cl)c(C=O)s2)cc1 | 1.58 | 83.1
Cc1nonc1NC(=O)CSc1nc2ccccc2cc1C#N | 1.32 | –
CCOc1cc(CNc2cccc3ccccc23)cc(Br)c1OCC(=O)NC(C)(C)C | 1.48 | 90.9
COc1cc(/C=C/c2nc3ccccc3s2)cc(OC)c1O | 8.13 | 90.5
CCOc1cc(/C=C2\SC(=O)N(c3ccc(O)cc3)C2=O)ccc1O | 1.51 | 94.1
Cc1ccc(C(=O)NNC2=Nc3cccc4cccc2c34)cc1 | 1.5 | 73.4
Cc1ccccc1-n1c(=O)cc(N2CCc3ccccc3C2)[nH]c1=O | 1.32 | 90.5
C=CCn1c(SCC(=O)Nc2sccc2C#N)nc2sc(C)c(C)c2c1=O | 1.08 | –
COc1cc2c3nnc(-c4ccccc4)c-3cn(Cc3ccccc3F)c2cc1OC | 3.34 | 91
c1cncc(Nc2nc(-c3cccs3)cs2)c1 | 1.32 | 86.8
CC(Sc1nc2ccccc2s1)C(=O)NC1CCCc2ccccc21 (stereo not given) | 1.44 | 86.5
COc1cc2cc(CN(Cc3cccnc3)C(=O)Nc3ccccc3)c(=O)[nH]c2cc1OC | 1.51 | 96.4
C=C(C)CSc1nc2nc(C)c(Br)cc2[nH]1 | 1.34 | 105
CCCOc1cc(N(CC)CC)ccc1/C=C(/C#N)c1nc2ccc(C)cc2[nH]1 | 6.6 | 76.8
CCCN1C(=O)/C(=C\C=C2/Sc3ccccc3N2CC)SC1=S | 1.46 | 92.3
O=S(=O)(c1ccc(F)cc1)N1CN(Cc2ccco2)c2nc3ccccc3nc21 | 1.59 | 84.4
OCC[n+]1ccc(/C=C/c2c[nH]c3ccccc23)cc1 | 2.45 | 86.6
O=S(=O)(/N=C(/c1ccccc1Cl)N1CCOCC1)c1ccccc1 | 1.38 | 94.2
COc1cccc(NC(=O)CN2C(=O)COc3ccc(Cl)cc32)c1 | 1.37 | 90.7
Cc1cc(C(F)(F)F)c(C#N)c(SCC(=O)Nc2nc3cc(Br)ccc3s2)n1 | 1.78 | 83.2
CC(C)Cn1c(/C=C/c2ccco2)nc2ccccc21 | 1.46 | 94.8
CN1/C(=C\C=C2\N=C(c3ccc(F)cc3)OC2=O)C(C)(C)c2ccccc21 | 1.47 | 94.1
COc1ccc(CN(Cc2cccn2C)S(=O)(=O)c2ccc(F)cc2)cc1 | 1.5 | 97.6
N#CCc1nc2ccc(S(=O)(=O)N3CCOCC3)cc2s1 | 2.41 | 94.4
N#CC1=C2N=C(N)c3ccccc3N2C2=C(C(=O)CCC2)C1c1ccc(Cl)cc1 (stereo not given) | 1.39 | 68.7
O=C(CNC(=O)Cc1ccccc1)NCC(=O)OCc1ccc(C(=O)c2ccccc2)cc1 | 1.44 | 98.2
